Assay [1] deals with Neu5Gc(a2-8)Neu5Gc(a2-6)Gal(b1-4)GlcNAc. Put plainly: glycan array binding signal (z-score within array); higher = stronger binding. The following applies: glycan notation: IUPAC condensed, linker removed. Put shortly: (§1)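 Negative Z-scores can be read as non-binding. The Z-score is calculated within each array and then averaged across arrays of one protein sequence at different concentrations or buffers and across linkers. Arrays, 3228 in all, were curated from the Consortium for Functional Glycomics database and kept only where the protein sequence was available.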

For assay [2], the target named is Neu5Gc(b2-6)Gal(b1-4)GlcNAc. The description is as above. The following applies: glycan notation: IUPAC condensed, linker removed. The method in brief: as §1

This is one part of the list.

B1: rCnSL-proB (Clitocybe nebularis) (protein)
chain: PTFSPIFALLAFLPFGTLASLLPQTQLVFRINPNLPGPNDVFVGYRGTNNVVGAIYERDGIKDTPMNNGADAELGPGSYITDDLFTAQIFASGSAGNNPGTTATVCKIYADGVQWRGAPKGYLPVLYFGNGQAAEQTRQTYLQGLDIPGTAIRFANLAKTPNQGPTAPRQMVVPSGGLQTLLKASCFPANHAALPQVLSYFNVRAALPPGWNIRTGPEFPNWTN
As for B1, the “glycan array binding signal (z-score)” value in assay [1] is -0.298; in assay [2] it was -0.407.

For the origin of these results see the supplement of paper PMC8728848.
